# Measured values: paper PMC4336329 (PLoS ONE, 2015)
# In all, about 310,000 compounds went through this assay and about 2,200 (0.71%) showed an effect of 50% or more. The effect is printed as a negative number. Some of the results follow.
# Target: human ether-à-go-go-related gene (hERG) potassium channel (human, UniProt Q12809)
# Test: primary screen, population patch clamp on CHO cells stably expressing hERG
# Chain of human ether-à-go-go-related gene (hERG) potassium channel (Q12809 whole entry, looked up): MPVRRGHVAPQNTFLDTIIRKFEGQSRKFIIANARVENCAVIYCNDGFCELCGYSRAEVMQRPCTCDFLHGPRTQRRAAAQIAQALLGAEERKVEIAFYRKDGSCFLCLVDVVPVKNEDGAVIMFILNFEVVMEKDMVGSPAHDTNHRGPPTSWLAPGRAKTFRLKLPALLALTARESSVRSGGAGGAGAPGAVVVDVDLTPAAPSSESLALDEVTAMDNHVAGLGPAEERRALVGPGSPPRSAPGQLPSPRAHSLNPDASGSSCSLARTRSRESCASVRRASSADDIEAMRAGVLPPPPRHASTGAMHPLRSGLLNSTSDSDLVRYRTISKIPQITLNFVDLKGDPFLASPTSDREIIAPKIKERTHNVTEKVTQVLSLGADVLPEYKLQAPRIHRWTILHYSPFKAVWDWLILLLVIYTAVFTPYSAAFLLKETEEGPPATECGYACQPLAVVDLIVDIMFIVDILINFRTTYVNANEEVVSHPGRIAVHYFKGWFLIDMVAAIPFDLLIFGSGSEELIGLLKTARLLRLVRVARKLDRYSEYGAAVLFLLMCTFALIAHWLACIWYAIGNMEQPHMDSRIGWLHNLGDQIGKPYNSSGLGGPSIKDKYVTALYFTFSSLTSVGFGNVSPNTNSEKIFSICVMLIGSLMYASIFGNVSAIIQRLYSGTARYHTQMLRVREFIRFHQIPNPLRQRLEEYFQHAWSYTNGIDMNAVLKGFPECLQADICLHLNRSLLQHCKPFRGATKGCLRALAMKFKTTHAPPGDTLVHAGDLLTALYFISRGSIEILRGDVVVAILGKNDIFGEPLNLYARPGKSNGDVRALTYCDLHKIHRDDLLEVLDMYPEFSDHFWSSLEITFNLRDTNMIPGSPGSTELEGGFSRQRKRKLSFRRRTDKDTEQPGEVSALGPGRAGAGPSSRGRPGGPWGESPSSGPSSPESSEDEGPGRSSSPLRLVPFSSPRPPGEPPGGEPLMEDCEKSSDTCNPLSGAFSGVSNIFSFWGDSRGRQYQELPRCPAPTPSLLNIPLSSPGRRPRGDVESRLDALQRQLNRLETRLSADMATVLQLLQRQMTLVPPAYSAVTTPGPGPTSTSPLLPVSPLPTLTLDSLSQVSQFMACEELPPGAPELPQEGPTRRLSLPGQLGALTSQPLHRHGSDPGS
row,Compound,"hERG current change (%, negative = inhibition) at 1uM [%]"
1,COc1cc(-c2cc(C(F)(F)F)n3ncc(C(=O)O)c3n2)cc(OC)c1OC,10.1
2,N#CC(c1ccccc1)c1ccc(C(=O)c2ccc(F)cc2)cc1 (centres unmarked),1.86
3,Cc1ccc(C)c(-c2cc(C(=O)NNC(=S)NCC(C)C)c3ccccc3n2)c1,-10.6
4,Cc1cc(-c2nsc(=O)o2)c(S(C)(=O)=O)s1,4.62
5,O=[N+]([O-])c1cccc(-c2cc(-c3cc(Br)ccc3O)[nH]n2)c1,19.2
6,Cc1ccccc1NC(=S)/C(=C(\[O-])c1cc(C)n(Cc2ccccc2Cl)c1C)[n+]1ccccc1,15.2
7,COc1cc2cccc(OC)c(=O)c2c(OC)c1OC,14.3
8,CCC(C)(C)NC(=O)C(c1ccc(C)o1)N(C(=O)c1csnn1)c1cccc(F)c1 (centres unmarked),7.95
9,COc1cc(OC)c(C2SCCN2S(=O)(=O)c2ccc(F)cc2)cc1OC (centres unmarked),17.7
10,C=CCN(CC=C)C(=O)CN1C(=O)NC(Cc2c[nH]c3ccccc23)C1=O (centres unmarked),14.1
11,CCOC(=O)C1=C(C)C(c2ccccc2O)NC(=O)N1 (centres unmarked),10.8
12,CCc1ccc(CN(C)C(=O)CCc2nnc(COc3ccccc3)o2)cc1,14.7
13,Cc1ccc(Nc2cc(=O)n(C3CCCCC3)c(=O)[nH]2)cc1C,16.1
14,COC(=O)C1=C(c2ccccc2OCc2ccccc2)C[C@@H]2CC[C@H]1N2C(=O)NCc1ccc(F)cc1,17.6
15,CCOC(=O)c1c(-c2ccc(C)cc2)csc1NC(=O)C1CCCO1 (centres unmarked),7.2
16,C=CCn1c(O)c(/C=C2/C=CC=N2)c(=O)[nH]c1=O,17.3
17,COC(=O)CNC(=O)C1CC(=O)N(CCc2ccc(F)cc2)C1 (centres unmarked),9.5
18,CCOC(=O)c1cnn(-c2ccccc2)c1-n1cccc1C(=O)C(=O)Nc1ccc(F)cc1,8.92
19,Cc1ccc(-c2c(=O)n(O)c3ccccc3[n+]2[O-])cc1,9.77
20,CCc1cc(-c2n[nH]c(=S)n2-c2cccc(C)c2)cs1,6.21
21,CCOc1cc(CNC(C)(C)C)ccc1OCC(=O)Nc1cccc(C(F)(F)F)c1.Cl,-0.133
22,Cn1c(N)c(C(=O)CSc2nnc(-c3ccccc3F)n2C2CC2)c(=O)n(C)c1=O,6.17
23,Cc1cccc(N(CC(=O)NCCSc2nc3ccccc3s2)S(=O)(=O)c2ccccc2)c1,10.8
